{
  "source": "PubChem BioAssay AID1347165",
  "about": "(National Center for Advancing Translational Sciences (NCATS), 2019)",
  "note": "The campaign covered roughly 220,000 compounds. About 5,700 (2.6%) were called active. Inconclusive means that the source gave no clear call. Such entries were picked first, then a sample of the others. Calls come from the whole dose curve; as a rule, active = well fitted inhibition curve with a large enough effect; inconclusive = small, poorly fitted or top-dose-only effect; inactive = no such curve, though single readings can be large or run the other way. Potencies beside an inconclusive call are fits to weak or partial responses and may not hold up. Potency is the fitted concentration of half-maximal effect; tags give direction and shape of the fitted curve.",
  "data": [
    {"molecular_target": "Lysine-specific demethylase 5B (Homo sapiens) (UniProt Q9UGL1)", "sequence (Q9UGL1 whole entry, looked up)": "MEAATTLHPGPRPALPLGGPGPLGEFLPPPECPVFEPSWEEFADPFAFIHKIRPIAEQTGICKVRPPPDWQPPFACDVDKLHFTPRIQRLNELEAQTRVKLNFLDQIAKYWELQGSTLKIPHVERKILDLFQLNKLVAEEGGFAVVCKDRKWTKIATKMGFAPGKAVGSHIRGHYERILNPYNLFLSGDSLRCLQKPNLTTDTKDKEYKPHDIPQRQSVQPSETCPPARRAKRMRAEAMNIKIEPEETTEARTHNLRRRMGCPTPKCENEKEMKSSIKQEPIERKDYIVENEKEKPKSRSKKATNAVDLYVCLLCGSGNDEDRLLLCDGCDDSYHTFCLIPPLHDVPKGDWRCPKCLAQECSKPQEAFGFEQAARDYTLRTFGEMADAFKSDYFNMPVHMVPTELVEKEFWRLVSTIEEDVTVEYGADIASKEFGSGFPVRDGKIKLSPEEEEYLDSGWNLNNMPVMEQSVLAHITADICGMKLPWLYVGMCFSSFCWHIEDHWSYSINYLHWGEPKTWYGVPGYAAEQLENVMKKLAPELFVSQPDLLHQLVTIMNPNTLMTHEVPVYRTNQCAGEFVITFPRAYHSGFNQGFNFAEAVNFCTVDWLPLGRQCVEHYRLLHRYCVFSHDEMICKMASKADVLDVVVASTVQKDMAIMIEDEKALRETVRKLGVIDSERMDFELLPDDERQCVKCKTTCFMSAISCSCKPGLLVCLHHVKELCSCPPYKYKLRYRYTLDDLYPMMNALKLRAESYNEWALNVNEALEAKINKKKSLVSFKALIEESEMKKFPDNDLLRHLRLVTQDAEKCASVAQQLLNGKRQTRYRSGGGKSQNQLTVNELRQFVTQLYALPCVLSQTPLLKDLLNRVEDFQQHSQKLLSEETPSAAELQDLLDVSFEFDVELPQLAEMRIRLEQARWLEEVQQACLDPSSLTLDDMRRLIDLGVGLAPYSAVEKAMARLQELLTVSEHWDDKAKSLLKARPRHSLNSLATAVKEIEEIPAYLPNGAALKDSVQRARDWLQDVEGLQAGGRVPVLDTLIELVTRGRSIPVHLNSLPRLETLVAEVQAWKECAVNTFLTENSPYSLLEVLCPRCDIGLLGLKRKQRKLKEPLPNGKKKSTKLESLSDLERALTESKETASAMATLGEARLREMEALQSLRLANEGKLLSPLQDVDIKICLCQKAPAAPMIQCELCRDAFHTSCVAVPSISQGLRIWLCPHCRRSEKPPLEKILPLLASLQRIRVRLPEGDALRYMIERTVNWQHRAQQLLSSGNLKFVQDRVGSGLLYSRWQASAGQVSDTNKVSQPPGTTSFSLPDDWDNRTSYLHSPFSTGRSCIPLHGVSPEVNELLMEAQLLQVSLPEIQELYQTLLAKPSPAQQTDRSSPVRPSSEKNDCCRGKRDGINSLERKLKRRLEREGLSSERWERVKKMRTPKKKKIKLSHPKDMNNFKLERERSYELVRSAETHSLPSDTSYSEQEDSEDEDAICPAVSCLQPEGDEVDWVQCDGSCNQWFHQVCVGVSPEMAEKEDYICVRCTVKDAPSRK", "experiment": "Primary screen for KDM5B Histone Demethylases FDH-coupled qHTS; note: nearly all actives have a fitted effect of over 70% in size; for activity change, negative = inhibition: 0% is about no effect", "conditions": "FDH-coupled NADH fluorescence (FDH is formaldehyde dehydrogenase); activity change, negative = inhibition: at 57.7 µM (top of the series) unless noted", "summary_of_the_method": "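Compound dilutions met 200 nM (final) KDM5BΔAP for 10 min at room temperature before substrate addition. The substrate mix held 12.5 µM H3K4me3 with cofactors 25 µM α-ketoglutarate and 50 µM Fe²⁺. NADH signal gain over 30 min defined activity.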", "values": [
      {"smiles": "c1ccc2oc([C@H]3CCN(C4CCCCC4)C3)nc2c1", "Potency": "inconclusive: 35.5 µM [inhibitor, partial curve, poor fit]"},
      {"smiles": "Cc1cccc(-c2cc(Nc3ccc(C(=O)N(C)Cc4ccccc4)cc3)ncn2)c1", "Potency": "inconclusive: 2 µM [inhibitor, full curve, poor fit]"},
      {"smiles": "CC(C)Cn1cnc2c1c(=O)n(CC(=O)N1CCc3ccccc31)c(=O)n2Cc1ccccc1", "Potency": "inactive"},
      {"smiles": "Cc1cccc(-n2nc(-c3c(C)nc4scc(CC(=O)NC(C)C)n4c3=O)cc2C)c1", "Potency": "inconclusive: 15.8 µM [inhibitor, partial curve, poor fit]"},
      {"smiles": "CCOC(=O)c1cc(-c2ccco2)nc2c1c(C)nn2-c1ccccc1Cl", "Potency": "inconclusive: 31.6 µM [inhibitor, partial curve, poor fit]"},
      {"smiles": "O=C(Nc1ccc(-c2nc3ccccc3o2)cc1)C1CC1", "Potency": "inconclusive: 1.78 µM [inhibitor, partial curve, poor fit]"},
      {"smiles": "COc1ccc2c(CN(C)CCOc3ccccc3Cl)cc(=O)oc2c1", "Potency": "inconclusive: 39.8 µM [inhibitor, single point]"},
      {"smiles": "COc1cn(-c2ccccc2)nc1C(=O)OCC(=O)NC1CC1", "Potency": "inconclusive: 25.1 µM [inhibitor, single point]"},
      {"smiles": "Cn1cc(CN2CCCC23CCN(c2ccc(C(F)(F)F)cn2)CC3)cc1C#N", "Potency": "active: 28.2 µM"},
      {"smiles": "Nc1nccnc1C(=O)NCCOc1ccccc1", "Potency": "inconclusive: 31.6 µM [inhibitor, partial curve, poor fit]"},
      {"smiles": "COc1cccc(-c2cc3c(=O)n(CCNC(=O)c4cccc(Cl)c4)ccn3n2)c1", "Potency": "inactive"},
      {"smiles": "O=C(Cc1ccc2c(c1)OCO2)N(Cc1ccncc1)Cc1cccc(OCCc2ccc(F)cc2)c1", "Potency": "inconclusive: 28.2 µM [inhibitor, single point]"},
      {"smiles": "O=C(Nc1ccc2c(c1)CCC2)C(Cc1ccccc1)n1cnnn1", "note": "(stereo not drawn)", "Potency": "inactive"},
      {"smiles": "O=c1cc(-c2ccncc2)oc2c(-c3ccc(CO)cc3)nccc12", "Potency": "active: 35.5 µM"},
      {"smiles": "CCCNC(=O)N1CC[C@@H](CC(=O)O)[C@@H](CC2=NCCc3ccc(C(C)(C)C)cc32)C1", "Potency": "inconclusive: 28.2 µM [inhibitor, partial curve, poor fit]"},
      {"smiles": "O=C(N[C@H]1CCOC[C@H]1C1CCOCC1)c1ccccc1-c1ccccc1", "Potency": "inactive"},
      {"smiles": "CCCN(CCC)CCCNC(=O)c1cc2c(-c3ccc(OC)c(OC)c3)nn(C)c2s1", "Potency": "inconclusive: 14.1 µM [inhibitor, partial curve, poor fit]"},
      {"smiles": "Cc1ccc(NC(=O)Nc2c(N3CCCC3)c3ccccc3oc2=O)cc1F", "Potency": "inactive"},
      {"smiles": "CCN(CC)C(=O)CSc1nc2ccsc2c(=O)n1-c1cc(F)cc(F)c1", "Potency": "inactive"},
      {"smiles": "O=C(Nc1oc2ccccc2c(=O)c1-c1ccc(F)cc1)c1ccc([N+](=O)[O-])cc1", "Potency": "inactive"},
      {"smiles": "CN(C)CCNC(=O)C1CCN(Cc2cc3ccccc3n2Cc2ccccc2)CC1", "Potency": "inconclusive: 17.8 µM [inhibitor, partial curve, poor fit]"},
      {"smiles": "COc1ccccc1-c1cc(C(=O)NCc2cnn(C)c2)c2c(c1)N(C)CCO2", "Potency": "active: 28.2 µM"},
      {"smiles": "Cc1noc(Cn2cnc3ccc(Br)cc3c2=O)n1", "Potency": "inactive"},
      {"smiles": "COCCNc1ncccc1-c1noc([C@@H]2CCCN2C2CCN(C)CC2)n1", "Potency": "active: 31.6 µM"},
      {"smiles": "CCOCCCNC(=O)C1CCCC(C(=O)NCCCOCC)C1", "note": "(stereo not drawn)", "Potency": "inactive"},
      {"smiles": "Cc1noc(C)c1Cn1cnc(-c2ccccc2)c1-c1ccc(CO)o1", "Potency": "inconclusive: 25.1 µM [inhibitor, partial curve, poor fit]"},
      {"smiles": "COc1ccccc1NC(=O)CCC(=O)Nc1cc(OC)c(NC(=O)c2cccs2)cc1OC", "Potency": "inconclusive: 4.47 µM [inhibitor, partial curve, poor fit]"},
      {"smiles": "COc1ccccc1-c1cc(NC(=O)C(C)OCC2CC2)n[nH]1", "note": "(stereo not drawn)", "Potency": "inactive"},
      {"smiles": "Cc1ccc(NC(=O)C2CCCc3ccccc32)c(Cl)c1", "note": "(stereo not drawn)", "Potency": "inactive"},
      {"smiles": "FC(F)(F)c1cccc(CSc2cccc3cccnc23)c1", "Potency": "inconclusive: 22.4 µM [inhibitor, partial curve, poor fit]"},
      {"smiles": "COc1cc(NC(=O)N2c3ccccc3Sc3ccccc32)cc(OC)c1", "Potency": "inconclusive: 25.1 µM [inhibitor, partial curve, poor fit]"},
      {"smiles": "CN(C)c1ccc(CN(C)C2CCc3ccccc32)cc1", "note": "(stereo not drawn)", "Potency": "inactive"},
      {"smiles": "CCCN1CCCC12Cc1ccccc1CN(C(=O)C(C)C)C2", "note": "(stereo not drawn)", "Potency": "inconclusive: 39.8 µM [inhibitor, partial curve, poor fit]"},
      {"smiles": "O=C(O)C(c1c[nH]c2cc(Br)ccc12)N1CCCN(c2ccc(C(F)(F)F)cn2)CC1", "note": "(stereo not drawn)", "Potency": "inactive"},
      {"smiles": "Cc1ccc(-c2noc([C@@H]3Cc4nc[nH]c4CN3Cc3ccccc3)n2)cc1", "Potency": "inconclusive: 56.2 µM [inhibitor, single point]"},
      {"smiles": "O=C(NCc1cccc(Br)c1)c1cnn(-c2ccc(F)cc2)c1-n1cccc1", "Potency": "inconclusive: 28.2 µM [inhibitor, partial curve, poor fit]"},
      {"smiles": "CCC(C)NC(=O)Cn1c(=O)n(CCCCCC(=O)NCc2ccccc2Cl)c(=O)c2sccc21", "note": "(stereo not drawn)", "Potency": "inactive"},
      {"smiles": "CC(=O)c1ccc(NC(=O)c2cc(-c3ccc(C)s3)nc3ccccc23)cc1", "Potency": "inconclusive: 1.58 µM [inhibitor, full curve, poor fit]"},
      {"smiles": "COC(=O)c1ccc(NC(=O)c2nc(-c3ccc(Cl)cc3)n3c2CCCCC3)cc1", "Potency": "inconclusive: 22.4 µM [inhibitor, partial curve, poor fit]"},
      {"smiles": "CCc1cccc(NC(=O)CCNS(=O)(=O)c2cccc3nonc23)c1", "activity change, negative = inhibition": "inconclusive: -30.9% [inhibitor]"},
      {"smiles": "CCCCNC(=O)C1CCCN(C2CCN(Cc3ccncc3)CC2)C1", "note": "(stereo not drawn)", "Potency": "inconclusive: 12.6 µM [inhibitor, partial curve]"},
      {"smiles": "Cc1ccc(N2C(=O)c3cccnc3C2Nc2ccc3c(c2)OCO3)cc1", "note": "(stereo not drawn)", "Potency": "inactive"},
      {"smiles": "Cc1ccc2nc(CO[C@H]3CN(Cc4ccccn4)C[C@H]3F)[nH]c2c1", "Potency": "inconclusive: 25.1 µM [inhibitor, partial curve]"},
      {"smiles": "Cc1ccc(S(=O)(=O)N2CCC(CCC(=O)NC3CC3)CC2)cc1", "Potency": "inactive"},
      {"smiles": "COc1cc2c(cc1-c1c(-c3ccccc3)ncn1CCCO)CCC2", "Potency": "inconclusive: 39.8 µM [inhibitor, single point]"},
      {"smiles": "Cc1c(Cl)cccc1-n1ncc(C(=O)Nc2ccc(Br)cc2F)c1C1CCNCC1", "Potency": "inconclusive: 31.6 µM [inhibitor, single point]"},
      {"smiles": "O=C(Nc1ccccc1F)c1ccc2c(Cl)c3c(nc2c1)CCC3", "Potency": "inconclusive: 15.8 µM [inhibitor, partial curve, poor fit]"},
      {"smiles": "O=C(c1nc(-c2ccc(Cl)nc2)c2ccccn12)N1CCCC1", "Potency": "inconclusive: 44.7 µM [inhibitor, partial curve, poor fit]"},
      {"smiles": "Cc1noc2c(NC3CCN(C)CC3)cc(-c3cccc(C(F)(F)F)c3)nc12", "Potency": "inactive"},
      {"smiles": "COc1ccc(-n2ncc3c(NC4CCCC4)ncnc32)cc1", "Potency": "inconclusive: 35.5 µM [inhibitor, partial curve, poor fit]"},
      {"smiles": "O=C(CSc1nc2cc([N+](=O)[O-])ccc2o1)NCc1ccccc1F", "Potency": "inactive"},
      {"smiles": "Cc1ccc(N2CCN(S(=O)(=O)c3cccc4ccccc34)CC2)cc1Cl", "Potency": "inconclusive: 1.26 µM [inhibitor, partial curve, poor fit]"},
      {"smiles": "CCN1C(=O)C(NC(=O)C(=O)NCc2cccnc2)c2cc(Cl)ccc21", "note": "(stereo not drawn)", "Potency": "inconclusive: 22.4 µM [inhibitor, partial curve, poor fit]"},
      {"smiles": "COc1ccccc1C(=O)NCCn1ccn2nc(-c3ccc(C)cc3C)cc2c1=O", "Potency": "inactive"},
      {"smiles": "Cc1ccccc1CC(=O)Nc1ccc2c(C)cc(=O)oc2c1", "Potency": "inconclusive: 17.8 µM [inhibitor, partial curve, poor fit]"},
      {"smiles": "O=C(c1ccsc1)N1CCC2(CC1)CN(C1CCC1)CC2CO", "note": "(stereo not drawn)", "Potency": "inconclusive: 20 µM [inhibitor, partial curve]"},
      {"smiles": "O=C(O)COc1ccc(S(=O)(=O)Nc2ccc(Cl)c(Cl)c2)cc1", "Potency": "inactive"},
      {"smiles": "CC(C)NC(=O)NC[C@H]1O[C@@H](CC(=O)N2CCc3ccccc32)[C@H](O)[C@@H]1O", "Potency": "inconclusive: 25.1 µM [inhibitor, partial curve]"},
      {"smiles": "O=C(NC1CCN(c2cc(-c3cccs3)[nH]n2)C1)c1ccccc1", "note": "(stereo not drawn)", "Potency": "inconclusive: 20 µM [inhibitor, partial curve, poor fit]"},
      {"smiles": "COc1ccc(NC(=O)CSc2ccc3nc(-c4ccccc4)cn3n2)c(OC)c1", "Potency": "inconclusive: 31.6 µM [inhibitor, partial curve, poor fit]"},
      {"smiles": "CCc1ccc(NC(=O)CCn2c(=O)c3cccn3c3ccccc32)cc1", "Potency": "inconclusive: 35.5 µM [inhibitor, single point]"},
      {"smiles": "Cc1nc(NC2CCCC2)sc1C(=O)NCCC(C)C", "Potency": "inactive"},
      {"smiles": "FC(F)(F)c1cccc(Nc2ncc(-c3cccnc3)c3c2OCC3)c1", "Potency": "active: 28.2 µM"},
      {"smiles": "COc1ccccc1CNC(=O)c1cc2sccc2n1Cc1ccc(Cl)cc1", "Potency": "inconclusive: 31.6 µM [inhibitor, single point]"},
      {"smiles": "COc1ccccc1NC(=O)c1sc2nc(C)c(C(=O)Nc3ccc(C)cc3C)c(-c3ccco3)c2c1N", "Potency": "inconclusive: 31.6 µM [inhibitor, single point]"},
      {"smiles": "CC(C)c1ccc(NC(=O)c2ccc(F)c(S(=O)(=O)N3CCc4ccccc43)c2)cc1", "Potency": "inconclusive: 44.7 µM [inhibitor, single point]"},
      {"smiles": "O=C(NCCO)c1ccc(-c2ncc3cnc(C4=CCOCC4)cn23)cc1", "Potency": "active: 31.6 µM"},
      {"smiles": "CCC(C)NC(=O)CSc1nc2n[nH]c(C)c2c(=N)n1-c1cc(Cl)ccc1C", "note": "(stereo not drawn)", "Potency": "inconclusive: 35.5 µM [inhibitor, single point]"}
    ]}
  ]
}
